# Assay results as given in PubChem BioAssay AID504845 (National Center for Advancing Translational Sciences (NCATS), 2011).
# Where “and” joins values, the source holds several entries; their conditions need not be identical. Equal entries are not always repeated. In all, about 390,000 compounds went through this assay and about 150 (0.038%) were called active. Inconclusive results, whose numbers are uncertain, are shown with a selection of clear calls. The call rests on the fitted dose curve; in most records, active means well fitted inhibition curve with a large enough effect; inconclusive means small, poorly fitted or top-dose-only effect; inactive means no such curve, though single readings can be large or run the other way. Where the call is inconclusive, the potency comes from a doubtful curve fit.
# Target: Regulator of G-protein signaling 4 (Homo sapiens) (UniProt P49798)
# Assay: Inhibitors of Regulator of G Protein Signaling (RGS) 4: qHTS; further: nearly all actives have a fitted effect of over 75% in size
# Details: Transcreener GDP fluorescence polarization, RGS4-accelerated GTP hydrolysis; series mostly up to 114 µM
# Outline: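 MLSMR compounds (23 nl, pin-transferred) preincubated 10 min at room temperature with a 500nM (2x) first reagent, then RGS4 at 900nM (2x) plus Transcreener GDP mix added; fluorescence polarization (620/688 nm) read before and after 90 min at 30 °C.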
# On the % scale 0 is the no-effect control and ±100 the full control effect; potency means the concentration at half of the fitted maximal effect; tags describe the fitted curve by direction and shape.
# Chain of UniProt P49798 (P49798 whole entry, looked up): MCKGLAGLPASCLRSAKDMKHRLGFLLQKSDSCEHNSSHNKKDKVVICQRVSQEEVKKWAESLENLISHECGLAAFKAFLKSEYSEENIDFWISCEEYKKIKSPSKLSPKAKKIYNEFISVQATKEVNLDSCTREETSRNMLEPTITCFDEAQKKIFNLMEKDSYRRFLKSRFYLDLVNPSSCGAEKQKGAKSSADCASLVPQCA
Compound,Potency,"activity change, negative = inhibition"
CC(C)c1cnc2c(c1SCc1cccc(F)c1)c(=O)n(C)c(=O)n2C,inactive,
Cc1ccc(-c2nc3ccccn3c2Nc2ccc(F)cc2)o1,"inconclusive: 79.4 µM [inhibitor, partial curve, poor fit]",
CCOC(=O)c1sc(=S)n(C)c1NC(=O)c1cccc(Br)c1,"inconclusive: 79.4 µM [inhibitor, partial curve, poor fit]",
CC1CCCCC1NC(=S)NC(=O)c1sc2ccccc2c1Cl (centres undefined),inactive,
CCOP(=O)(c1ccccc1Cl)C1(O)CCCCC1 (centres undefined),"inconclusive: 100 µM [inhibitor, single point]",
CCOC(=O)c1c(-c2ccco2)csc1NC(=O)COC(=O)c1cnc(C)cn1,"inconclusive: 79.4 µM [inhibitor, partial curve, poor fit]",
Cc1c(C(=O)NCc2cccc(Br)c2)oc2ccc3c(c12)C(=O)CC(C)(C)O3,inactive,
CCOC(=O)c1c(-c2ccc(Cl)cc2)csc1NC(=O)CNCc1ccco1,inactive,
O=[N+]([O-])c1ccc2c(c1)N([O-])C1(CCCCC1)[N+]2=O,"inconclusive: 112 µM [inhibitor, partial curve, poor fit]",
Cc1ccc(S(=O)(=O)N(C)C[C@@H]2Oc3c(NS(C)(=O)=O)cccc3C(=O)N([C@H](C)CO)C[C@@H]2C)cc1,inactive,
O=[N+]([O-])c1ccc(S(=O)(=O)Nc2nnc(C(F)(F)F)s2)cc1,"inconclusive: 79.4 µM [inhibitor, partial curve, poor fit]",
COc1ccc(C(=O)NCC(=O)OCC(=O)c2ccc3ccccc3c2)cc1,inactive,
Cc1sc(NC(=O)c2ccco2)c(CN2CCC(C)CC2)c1C,"inconclusive: 89.1 µM [inhibitor, single point]",
CCOC(=O)c1cc(=O)n2nc(-c3ccccc3F)nc2s1,"inconclusive: 70.8 µM [inhibitor, single point]",
CC1=C(c2ccc(F)cc2)S(=O)(=O)N=C1N1CCC(C(=O)NCCc2cccc(C)c2)CC1,inactive,
COc1ccc(N2CCN(Cc3nc(Cc4cccc(F)c4)no3)C(C)C2)cc1 (centres undefined),inactive,
Oc1ccc(/C=N/Nc2ccnc3cc(Cl)ccc23)c(O)c1O,"inconclusive: 112 µM [inhibitor, partial curve, poor fit]",
CCOC(=O)c1c(NC(=O)COC(=O)CNC(=O)c2ccco2)sc(C)c1C,"inconclusive: 20 µM [inhibitor, full curve, poor fit]",
NS(=O)(=O)c1cccc(NC(=O)CCSc2ccc(Cl)cc2)c1,"inconclusive: 89.1 µM [inhibitor, partial curve, poor fit]",
O=[N+]([O-])c1cc(-c2ncccn2)c([N+](=O)[O-])s1,"inconclusive: 79.4 µM [inhibitor, partial curve, poor fit]",
CC/C=C\C/C=C\C/C=C\CCCCCCCC(=O)O,"inconclusive: 150 nM [inhibitor, full curve, poor fit] and inconclusive: 17.8 µM [inhibitor, full curve, poor fit]",
O=C(CBr)Nc1c2c(nn1-c1ccccc1)CSC2,"inconclusive: 50.1 µM [inhibitor, partial curve, poor fit]",

Compound,Potency,"activity change, negative = inhibition"
O=C(CSCc1ccccc1)Nc1cccc(F)c1,"inconclusive: 35.5 µM [inhibitor, partial curve, poor fit]",
O=C(CCN1CCN(c2ccccc2F)CC1)c1ccc(Br)cc1,"inconclusive: 35.5 µM [inhibitor, full curve, poor fit]",
O=C(O)CCc1cc(I)c(O)c(I)c1,"inconclusive: 8.44 µM [inhibitor, partial curve, poor fit]",
COc1ccc(C(C)=O)cc1COC(=O)Cc1cc(OC)c(OC)c(OC)c1,inactive,
O=C(OCC(=O)c1ccc(Cl)cc1Cl)c1ccc2c(c1)C(=O)N(c1cccc3ncccc13)C2=O,"inconclusive: 79.4 µM [inhibitor, partial curve, poor fit]",
O=C(/C=C/c1cccc([N+](=O)[O-])c1)OC1CCCCC1=O (centres undefined),,inactive: 16.2% [at 11.4 µM]
Cc1cc(C)c2sc(C)[n+](CCCS(=O)(=O)[O-])c2c1,"inconclusive: 89.1 µM [inhibitor, partial curve, poor fit]",
COC(=O)c1cc(NC(=O)c2ccccc2)c(=O)oc1C/C=N\OCc1ccc(Cl)cc1Cl,"inconclusive: 79.4 µM [inhibitor, partial curve, poor fit]",
Cc1ncc(CO)c2c1Oc1nc(-c3ccccc3Cl)nc(SCc3ccccc3F)c1C2,inactive,
Nc1cccc2c1C(=O)N(C(=O)/C=C/c1cccc(F)c1)C2=O,"inconclusive: 50.1 µM [inhibitor, partial curve, poor fit]",
CCCCc1ccc(N/C(N)=N/c2nc(C)cc(C)n2)cc1,inactive,
Oc1c(C(c2ccccn2)N2CCOCC2)ccc2cccnc12 (centres undefined),"inconclusive: 44.7 µM [inhibitor, partial curve, poor fit]",
CCOC(=O)CN1C(=O)C(O)=C(C(C)=O)C1c1ccc(F)cc1 (centres undefined),"inconclusive: 89.1 µM [inhibitor, single point]",
COC(=O)/C=C/C(=O)N1CCN(c2ccccc2)CC1,inactive,
C=CCn1c2ccccc2n2nc(C)c(=O)nc12,inactive,
COC(=O)CNC(c1ccccc1Cl)c1cc(Br)ccc1NC(=O)CCN1CCOCC1 (centres undefined),"inconclusive: 50.1 µM [inhibitor, partial curve, poor fit]",
COc1ccc(C2CC(=O)N3CN(C4CCCCC4)CSC3=C2C#N)c(OC)c1 (centres undefined),"inconclusive: 100 µM [inhibitor, partial curve, poor fit]",
COc1cc(/C=C/C(=O)OCC(=O)c2ccc3c(c2)NC(=O)CO3)ccc1OC(F)F,"inconclusive: 79.4 µM [inhibitor, partial curve, poor fit]",
CC1CCN(CCc2nc3cc(NC(=O)Nc4ccccc4)ccc3n2C)CC1,inactive,
Cc1cc(F)ccc1S(=O)(=O)Nc1ncnc2sc3c(c12)CCC3,"inconclusive: 44.7 µM [inhibitor, partial curve, poor fit]",
CCc1cc2ccc(C)cc2nc1SCC(=O)N1CCN(C(=O)c2ccco2)CC1,"inconclusive: 31.6 µM [inhibitor, full curve, poor fit]",
CC(=O)NNC(=S)NC(=O)c1ccccc1,"inconclusive: 100 µM [inhibitor, partial curve, poor fit]",

Compound,Potency,"activity change, negative = inhibition"
CN(C)C(=O)c1cn(-c2ccc(Cl)cc2)c(=O)c2ccccc12,"inconclusive: 89.1 µM [inhibitor, single point]",
COCCn1nnnc1C(c1ccc(O)c(OC)c1)N1CCc2ccccc2C1 (centres undefined),"inconclusive: 89.1 µM [inhibitor, single point]",
COC(=O)c1c(C)oc2ccc(N(C(=O)c3ccncc3)S(=O)(=O)c3ccc(OC)cc3)cc12,inactive,
COc1cccc(OC)c1C(=O)N1CCNCC1,"inconclusive: 89.1 µM [inhibitor, partial curve, poor fit]",
Clc1ccc(-c2nn3c(C4COc5ccccc5O4)nnc3s2)cc1 (centres undefined),"inconclusive: 100 µM [inhibitor, partial curve, poor fit]",
CCC(C)Nc1nc(N)c([N+](=O)[O-])c(NCc2ccccc2)n1 (centres undefined),"inconclusive: 89.1 µM [inhibitor, single point]",
C=CCOC(=O)c1cc(-c2ccc(/C=C3\C(=O)NC(=O)C(C#N)=C3C)o2)ccc1Cl,"inconclusive: 20 µM [inhibitor, full curve, poor fit]",
CC1(C)CC(=O)c2cc(NC(=O)c3ccccc3)c(=O)oc2C1,"inconclusive: 100 µM [inhibitor, single point]",
CCC(c1nnnn1Cc1ccco1)N1CCN(c2cc(Cl)ccc2C)CC1 (centres undefined),"inconclusive: 50.1 µM [inhibitor, partial curve, poor fit]",
CCc1ccccc1NC(=O)CNC(=O)CCc1nc2sc3c(c2c(=O)[nH]1)CCCC3,"inconclusive: 100 µM [inhibitor, single point]",
Cc1ccccc1S(=O)(=O)NC1OC(=O)C(Oc2ccccc2)=C1Br (centres undefined),inactive,
CC(CCc1ccccc1)NS(=O)(=O)c1ccc(Cl)c(C(=O)O)c1 (centres undefined),"inconclusive: 50.1 µM [inhibitor, partial curve, poor fit]",
FC(F)Oc1ccc(NC(=S)NNc2ccnc3cc(Cl)ccc23)cc1,"inconclusive: 56.2 µM [inhibitor, partial curve, poor fit]",
Cc1cc(C)c(NC(=O)CN)c(C)c1,"inconclusive: 79.4 µM [inhibitor, partial curve, poor fit]",
C/C(=N\NC(=O)c1ccc(O)cc1)c1ccc(N2CCOCC2)cc1,"inconclusive: 79.4 µM [inhibitor, partial curve, poor fit]",
Cc1ccc(C(=O)N/N=c2\oc3ccccc3cc2C(N)=O)cc1,inactive,
Cc1ccccc1Cn1nc(C)c(NC(=O)c2cc(-c3ccco3)on2)c1C,"inconclusive: 89.1 µM [inhibitor, single point]",
COc1cc(OC)cc(-n2c(=O)c3ccccc3n(Cc3ccccc3C#N)c2=O)c1,inactive,
COc1cc2c(=O)n(Cc3ccco3)c(=O)n(CC(=O)c3ccc(Br)cc3)c2cc1OC,"inconclusive: 79.4 µM [inhibitor, partial curve, poor fit]",
CCN1CCc2c(sc(NC(=O)c3ccc(S(=O)(=O)N4CC(C)OC(C)C4)cc3)c2C(N)=O)C1 (centres undefined),"inconclusive: 35.5 µM [inhibitor, full curve, poor fit]",
